Measurements taken from the supplement of paper PMC11417369.
The other results are listed elsewhere or left out.

Tested on: PfHDP1 homeodomain (GST-tagged)
Experiment: gcPBM binding intensity (ln(normalized median fluorescence intensity)); higher = stronger DNA binding
Outline: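 Binding intensity values are the highest Masliner-normalised natural-log median intensity among replicate spots of either probe orientation. The binding step lasted 1 h in 1× PBS with 1% milk, 0.2 mg/ml BSA, 0.5% salmon testes DNA and 0.03% Triton X-100, using GST-tagged P. falciparum DNA-binding domains expressed in E. coli on an Agilent 4 × 180k array of primer-extended double-stranded 36-bp intergenic genomic probes plus negative controls. Alexa488 anti-GST antibody and a 488 nm scan detected bound protein.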

Sequence	gcPBM binding intensity (ln)
TATGAACACCCAAATACACACACTCAAAAAAAAAAA [CACACA_site5466]	6.42
AAAATGTTTTTATCCAGTACATAAATATATATATAT [XGTACX_site7398]	8.6
GAAAAATTGAATTTGGGTACATATAAATATTATATT [XGTACX_site2363]	6.13
ATAAATATTAGCAGTTGTACAATAAATATATGTAAT [XGTACX_site2534]	6.86
TTCCCTATATAGAGCATGCACTATATTCAAATGATG	8.54
TTAGATATAAAAGCATGTACTTGTATAAAATATATA [XGTACX_site8272]	6.14
TTATCAAATGAGTGTTGTACGTCTTTTGAAATACCA [XGTACX_site8804]	6.04
AAGGCAAACAAACACACACACATATATACATATATA [CACACA_site2122]	6.79
TTTATACAAACAACTTTATATTAATGTTTAACGGAG [GTGCAC_negctrl_site396]	6.29
TCTTTCTAAAGATGTAGTACAAAATAAATATAATAT [XGTACX_site6564]	6.87
TAATATGCTCATGTAACACACATTTGCATATTTTTC [CACACA_site1357]	9.63
TTATCACACCTTTTTTGTACGAAATAAAAAAAAAAA [XGTACX_site5564]	6.08
GTGCAAAATATTTTTACACACAAATTCTTACAACAG [CACACA_site7556]	7.77
ATATCTATGTTTATCTCGAATAACTTAAAAAATTAT [CACACA_negctrl_site1131]	6.4
TAGAACAAATAAAACACACACATATAAATATAGATG [CACACA_site7325]	6.52
GATATTATGTGTTTGGTATTTTTTGATGTTGGTAGG [XGTACX_negctrl_site563]	6.81
GTATTACAACGACACACACACCTATATATCATAGTA [CACACA_site7877]	6.99
ACATTAAAAAAAAAATGTACATAAATATTTTTCCTT [XGTACX_site4361]	6.25
AATTTTATTCATTGAGCACACAAAATAAATTATCAA [CACACA_site9079]	6.73

Sequence	gcPBM binding intensity (ln)
ATCTTTTATATAAAATGTACAGAGTTTGAAAGAATA [XGTACX_site8826]	6.64
TGTAAATATATATATACACACACACCGAAGCAATAG [CACACA_site8960]	7.46
CATACAGACATACATACACACATACATACAGACATA [CACACA_site6996]	6.87
TAAAAAGGAAGACACACACACACATATATAAATATA [CACACA_site7657]	6.82
GTATATCACACATTTGCATGTTGTCAATAGTTTATC [TGCATGCA_site134]	6.93
TTTTTTTTTTTTTAAACATGCATATTAATATTATAT [TGCATGCA_site820]	6.46
ATACAAATTGTTTAAAGTACAAATTACACCTCTTAA [XGTACX_site6888]	6.21
TATATACACATATATAAACACACAAAAAAAAAAAAA [CACACA_site8626]	6.47
ATTATATACATATATGCACACAAAAAAATATATATT [CACACA_site8508]	9.93
AAAGGCTATCTTATATACTCCTAAAACGCGAACGTA [CACACA_negctrl_site396]	6.12
ATAAATTCTATGTATACACACATATAAAATATAGAT [CACACA_site7296]	6.74
AATATATAAATATTGTGTACTTATTTTTTTATATGT [XGTACX_site4377]	6.54
TATCATTAATTTACATGTACATAAATGAATGTTTAT [XGTACX_site5608]	6.09
TTCGTAATTTATATCACACACATATATCTATAATAA [CACACA_site7458]	6.83
TTTTTTGTTATTAAAAGTACATTATATGCTAGTTAA [XGTACX_site8747]	6.19
TTAAAAATATTATGTACACACATTTGAGATATTTGT [CACACA_site6953]	6.26
TGAAATAAAATTTATACACACTTGCTAAATGATCAT [CACACA_site4265]	6.53
CAATGGTCATTTAGTTGTACTTAATTTTAAATCAAA [XGTACX_site4075]	6.21
AAAAAAAACGAACACACACACATTCAATATAAAACA [CACACA_site6170]	6.8

Sequence	gcPBM binding intensity (ln)
AGAATATTTAAAAAAGGTACACAAAAACCAAAATAA [XGTACX_site8569]	6.81
TTATTGCATATTTACACACGTACTAATTTAAACAAG [CACACA_site971]	7.58
ATATATGACAAATGTAGTACAAATTATTGTATCATA [XGTACX_site3675]	6.37
TATTAATACAGACACACACACACACCCAATAAAATA [CACACA_site243]	6.97
ATAAATTCATATATGAGTACTAAAAATATCTTTTTC [XGTACX_site5541]	6.6
TACAATTTAATATATACACACAAATAAATTATGCTT [CACACA_site856]	6.4
AACAATTTATATAAAGCACACATGGGAAGGAAATAC [CACACA_site1712]	7.65
GTAAGCACACATAGTTGTACATTAATAAAAATAAAT [XGTACX_site5876]	6.53
ATATGTATGAAGTGTACACATATATTGTATTTTCTT [CACACA_site5503]	6.59
TTCCTATAAAAAAACACACACATATAAATATATATA [CACACA_site2318]	6.66
TAAACACATTATATATGTACATAATAAAAAAAAAAA [XGTACX_site7907]	6.49
AAGTTATACACATCAACACACACATACAACGTGGTG [CACACA_site8312]	6.98
ATATTAACTTTTATTACACACTCTCAACTTTTATTT [CACACA_site6176]	6.93
TCACAAATGTATTATACACACAAGTTTTCTTTAATA [CACACA_site4107]	6.65
ATAAAATACAAAGGGACACACATATGAGTCTACAAA [CACACA_site3092]	6.24
ATTTATTTATTTTCATGTACATATGTAAATCAATAA [XGTACX_site3886]	6.21
TATATAATATAATGTAGTACATGTTTTATTTTTTAC [XGTACX_site7735]	6.4
TATATATTATATATATGTACTTATTTATTAATTTAT [XGTACX_site5253]	6.56
ATATAAAATAAATAAGTGCAGATAAATTTATGTGAC [GTGCAC_site9504]	8.05
